Where no end group is shown, it is not given here.
Test: Dose-effect experiment, body weight of MCAO model animals (Example 10)
Protocol: The establishment of rat model: the rats were placed in an anesthesia induction box filled with 3.0% isoflurane for anesthesia induction. Anesthesia-induced animals were transferred to the operating table, and anesthesia was maintained with 2.0%˜2.5% isoflurane at 200 mL/min using a small-animal gas anesthesia machine, and the eyelid reflex and pain response of the rats were observed. The surgery can be started only after the eyelid reflex response and the pain response on limbs and tail disappeared. • A. Isolating and exposing blood vessels: the skin of the surgical area was shaved, and the rat was placed under a surgical microscope. The skin of the rat was cut along the midline with ophthalmic scissors, with a cut of about 2 cm length. […]
Animals measured: all the surviving experimental animals planned to be measured;
Measurement time: the body weight was measured at least twice during the accommodation, and each batch of rats were weighed once on the day before the surgery and on the day of dissection to calculate the amount of drug administered and the anesthetic applied; the body weight was measured twice a week after the surgery. […]

YGRKKRRQRRRKLSSIESDV [S1, Nerinetide]
Weight Loss (3 mg/kg i.v., D 0 body weight − D 2 body weight, mean ± SD): 48.22 ± 8.23 g | Influence on rat's body weight (MCAO rats, 1 day after surgery, vs model control group): no significant influence on rat's body weight

From US20240002435A1, “SYNTHETIC PEPTIDE AND APPLICATION THEREOF” (Wuhan Innerse Pharmaceutical Inc., priority 2021, published 2024)
